Measurements taken from PMC4336329 (PLoS ONE, 2015).
Out of some 310,000 compounds screened, about 2,200 (0.71%) showed an effect of 50% or more. The effect is printed as a negative number. The list shows a part of the results. Where a SMILES comes first, the peptide text is derived from it. The star is where a group is joined. Boc = CC(C)(C)OC(=O)*

These compounds were tested against human ether-à-go-go-related gene (hERG) potassium channel (human, UniProt Q12809) (assay: primary screen, population patch clamp on CHO cells stably expressing hERG).
Chain of human ether-à-go-go-related gene (hERG) potassium channel (Q12809 whole entry, looked up): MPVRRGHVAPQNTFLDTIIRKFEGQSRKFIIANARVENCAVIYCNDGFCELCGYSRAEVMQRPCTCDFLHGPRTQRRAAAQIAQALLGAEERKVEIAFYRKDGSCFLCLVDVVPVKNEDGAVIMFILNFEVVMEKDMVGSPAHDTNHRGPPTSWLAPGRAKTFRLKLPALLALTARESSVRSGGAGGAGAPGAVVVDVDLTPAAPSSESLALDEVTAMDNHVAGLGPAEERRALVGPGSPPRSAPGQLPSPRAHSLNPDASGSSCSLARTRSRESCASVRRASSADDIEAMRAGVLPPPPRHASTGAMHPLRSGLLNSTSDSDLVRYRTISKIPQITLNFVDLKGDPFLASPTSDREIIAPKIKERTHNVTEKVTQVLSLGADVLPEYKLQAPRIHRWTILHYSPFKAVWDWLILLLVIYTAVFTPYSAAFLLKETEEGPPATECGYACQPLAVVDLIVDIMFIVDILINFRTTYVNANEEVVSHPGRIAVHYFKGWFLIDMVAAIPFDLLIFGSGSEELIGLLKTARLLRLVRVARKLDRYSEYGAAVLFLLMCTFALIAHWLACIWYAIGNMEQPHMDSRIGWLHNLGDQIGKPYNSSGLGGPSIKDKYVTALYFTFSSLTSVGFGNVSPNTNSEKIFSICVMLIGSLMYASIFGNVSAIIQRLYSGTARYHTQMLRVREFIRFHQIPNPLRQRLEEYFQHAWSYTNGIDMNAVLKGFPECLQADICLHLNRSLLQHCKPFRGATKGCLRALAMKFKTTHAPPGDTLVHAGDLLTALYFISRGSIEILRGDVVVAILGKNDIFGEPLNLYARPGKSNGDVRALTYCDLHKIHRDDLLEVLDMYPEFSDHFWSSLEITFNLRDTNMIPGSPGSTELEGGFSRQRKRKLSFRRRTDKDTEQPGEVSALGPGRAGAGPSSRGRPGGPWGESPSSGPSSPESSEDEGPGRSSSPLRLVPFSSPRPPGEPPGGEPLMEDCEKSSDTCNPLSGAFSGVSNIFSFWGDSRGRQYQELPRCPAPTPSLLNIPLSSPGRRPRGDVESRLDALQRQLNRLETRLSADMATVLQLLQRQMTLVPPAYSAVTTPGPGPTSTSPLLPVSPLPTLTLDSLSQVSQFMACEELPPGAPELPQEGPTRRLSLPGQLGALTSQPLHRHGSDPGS

| Compound | hERG current change (%, negative = inhibition) at 1uM |
| --- | --- |
| Cc1ccc(C)c(NC(=S)/C(=C(\[O-])c2ccc(OC(F)F)cc2)[n+]2ccccc2)c1 | 21.8% |
| COc1ccc(N2C(=O)N3[C@H](c4ccc(Cl)cc4)[C@@H]4C(=O)N(C5CCCCC5)C(=O)[C@@H]4[C@]3(C)C2=O)cc1 | 12.7% |
| Cc1ccc(C(=O)N2CCN(C3CCCCC3)CC2)s1 | -9.84% |
| C=CCOc1ccccc1C(=O)/C=C1/C(=O)Nc2ccccc21 | 13.9% |
| Cc1cccc(Nc2nnc(SC/C(O)=C(\C#N)c3nc4ccccc4[nH]3)s2)c1C | 3.81% |
| Cc1cccc(N2CCC(N3CCN(C4CCCCC4)C(CCO)C3)CC2)c1C (stereo not drawn) | -4.91% |
| CCN(CC)S(=O)(=O)c1ccc(NC(=O)COc2nc3ccccc3nc2N2CCOCC2)cc1 | -3.92% |
| COc1ccccc1OCC(=O)NCc1nc(-c2ccccc2)no1 | 5.59% |
| CC1CCCCC1NC(=O)C(=O)NCC1CCCO1 (stereo not drawn) | 4.9% |
| O=C(Nc1ccccc1C(=O)N1CCCCC1)c1cccc(S(=O)(=O)N2CCOCC2)c1 | 8.21% |
| Cc1ccc(C)c(C(=O)COC(=O)c2cc(Cl)nc3ccccc23)c1 | 16.6% |
| CCOc1ccc(S(=O)(=O)N/N=C2/CC(c3ccccc3)Oc3ccccc32)cc1 (stereo not drawn) | 4.51% |
| COc1ccc(NC(=O)c2cc(-c3ccccc3Cl)on2)cc1 | 12.9% |
| O=C(N[C@@H](c1ccccc1)[C@@H]1C[C@H]1C(=O)O)OCc1ccccc1 | 13.8% |
| O=S(=O)(Nc1ccccn1)c1ccc(-n2cccn2)cc1 | 18.3% |
| O=C(c1cc2sccc2n1Cc1ccccc1)N1CCCc2ccccc21 | 0.679% |
| Cc1cc(=O)[nH]c(SCc2nc3ccccc3c(=O)n2-c2ccccc2C)n1 | 21.4% |
| CSCCC(NC(=O)c1ccccc1)C(=O)N1CCN(C(c2ccccc2)c2ccccc2)CC1 (stereo not drawn) | 13.2% |
| COCCCN(CC(=O)Nc1ccc(N2CCOCC2)cc1)S(=O)(=O)c1ccccc1 | 6.63% |
| COC(=O)c1cnc(Nc2cc(C)ccc2OC)c2ccccc12 | 13.6% |
| C=CCn1c(C)c(C(C)=O)cc(NC(=O)c2ccccc2)c1=O | 1.91% |
| N=C(N=C(N)N)N1CCc2ccccc21 | 10.8% |
| O=C(O)c1nccnc1C(=O)Nc1ccc(S(=O)(=O)N2CCOCC2)cc1 | 7.7% |
| CCn1c(CSCc2ccc(Cl)cc2)nnc1SCC(=O)Nc1cccc(C(=O)O)c1 | 9.34% |
| CC(=O)NC1(C(F)(F)F)C(=O)Nc2c1c(=O)[nH]c(=O)n2-c1ccccc1 (stereo not drawn) | 18.6% |
| CCOC(=O)[C@H]1[C@H]2COc3ccc(OC)cc3[C@H]2N2C(=O)CNC(=O)[C@@]12C | 11.7% |
| CCc1nnc(N/N=C/c2cccs2)n1N.Cl | 7.4% |

| Compound | hERG current change (%, negative = inhibition) at 1uM |
| --- | --- |
| CC1=NN(C(N)=S)C(=O)C1N=Nc1cccc(Cl)c1 (stereo not drawn) | 9.02% |
| Cc1cccc(C(=O)N2CCc3cc(-c4nc(NC(=O)Cn5nnc6ccccc6c5=O)sc4C)ccc32)c1 | 18.8% |
| O=C(Nc1ccc(C(=O)NCc2ccc(F)cc2)cc1)C1=CSCCO1 | -0.658% |
| N#Cc1cc(Cl)c(N2CCOCC2)cc1C#N | 7.95% |
| CCC(C)(C)n1nnnc1C(C(C)C)N1CCN(C)CC1.Cl (stereo not drawn) | 15.1% |
| CCC(=O)c1ccc(OCC(=O)NCCc2ccccn2)cc1 | 4.02% |
| Cn1c(C(=O)N[C@@H](C(=O)O)c2ccccc2)cc2cc(F)ccc21 | 17.8% |
| Cc1cc(NC(=O)CSc2nnc3ccccn23)no1 | 3.24% |
| O=C(NC(=S)NC(CO)c1ccccc1)c1ccc(F)cc1 (stereo not drawn) | 9.75% |
| Cc1ccc(S(=O)(=O)N2CCCC2C(=O)OCc2ccccc2)cc1 (stereo not drawn) | 9.93% |
| COc1ccc(CNC(=O)Nc2ccc(OC)cc2)cc1 | 10.6% |
| O=C(Nc1ccc(Cl)cc1Cl)C1=Cc2ccccc2OC1 | 3.71% |
| Cc1[nH]c2ccc(C(=O)N3CCN(c4ccccn4)CC3)cc2c1C | 9.07% |
| Cc1ccc(NC(=S)N(CCN2CCCCC2)Cc2ccco2)cc1Cl | 1.2% |
| O=C1CC(c2cccc([N+](=O)[O-])c2)c2c(ccc3ccccc23)N1 (stereo not drawn) | 10.9% |
| Cc1ccc(N2CCN(C(=O)C3CCCN(c4ncnc5c4nc4n5CCCCC4)C3)CC2)c(C)c1 (stereo not drawn) | 9.53% |
| Cc1ccc(OCCNS(=O)(=O)c2ccc(N3CCCC3=O)cc2)cc1C | 3% |
| COc1cc(C(=O)NCCCc2nc3ccccc3n2Cc2cc(C)ccc2C)cc(OC)c1OC | 0.547% |
| CCCCn1c(=NC(=O)c2ccco2)c(C(=O)OCC)cc2c(=O)n3ccccc3nc21 | -44.1% |
| C=CCSC1=NC(=O)/C(=C/c2cccs2)S1 | 7.27% |
| O=C(CNC(=O)c1cccs1)N/N=C/c1ccccc1[N+](=O)[O-] | 10.2% |
| O=C(NCCc1nc(-c2ccccc2)cs1)c1ccc(Br)cc1 | 1.38% |
| CC(C)(C)OC(=O)NC(Cc1ccccc1)C(=O)N1CCCC1C(=O)O (stereo not drawn) (Boc-Phe-Pro-OH; configuration not given here) | 12.6% |
| CCN1C(=O)C(=Cc2cc(C)n(C3CC3)c2C)C(=O)N(CC)C1=S | 10.9% |
| COc1ccc(CNC(=O)COc2ccccc2C(=O)c2cnn(-c3ccccc3)c2)cc1OC | -1.17% |
| COc1ccc(CCNC(=O)[C@@H](NC(N)=O)C(C)C)cc1 | 11.4% |
| Cc1cc(C)cc(NCc2ccncc2)c1 | 0.827% |
